Reference: PubChem BioAssay AID743279 (National Center for Advancing Translational Sciences (NCATS), 2014)
The whole screen tested about 360,000 compounds, of which about 17,000 (4.7%) were called active. The shares of active, inactive and inconclusive entries below differ from those in the screen. Cut-off read from the data, not from the text of the source: active = activity change below about -50%; inconclusive = mostly about -30% to -49%; inactive = weaker than that.
% is set by controls: 0 for no effect and ±100 for the full control effect.

Assay: qHTS for Inhibitors of Inflammasome Signaling: IL-1-beta AlphaLISA Primary Screen
Conditions: THP-1 LPS/ATP IL-1B secretion, 16 h; at 57.5 µM, stronger effect = lower value
Summary of the method: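 THP-1 cells pretreated 1 hr with compounds (up to 57.5 uM final), then stimulated with LPS (250 ng/mL final) plus ATP (1.25 mM final); secreted IL-1B measured by AlphaLISA after 16 hr, decreased signal indicating inhibition.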
In the case of `Cc1ccc(-c2nnc(-c3ccc4c(c3)OCO4)o2)cc1`, the activity change is reported as inactive: -6.1%.
For `C#CCOCCOCCOCCNc1nc(N2CCOCC2)nc(N2CCN(C(=O)CCCCCCCCCCNC(=O)[C@H]([C@@H](C)CC)n3cc(CCCCN=C(N)N)nn3)CC2)n1`, the activity change was inconclusive: -47.5%.
In the case of `O=[N+]([O-])c1cc(C(F)(F)F)ccc1Sc1nccn1Cc1ccccc1`, the activity change is reported as inconclusive: -34.1%.
For `COc1ccc(Cl)cc1NC(=O)CN(C)CC(=O)NCc1ccc(F)cc1`, the activity change was inactive: -14.1%.
With `CN(C)Cc1cc(C(C)(C)c2ccccc2)ccc1O` the activity change was inconclusive: -36%.
For `Cc1ccc(S(=O)(=O)N2CCc3ccccc3CC2)cc1`, the activity change was active: -85.4%.
For `CN(C)CCCN(C(=O)c1ccc(S(=O)(=O)N2CCc3ccccc32)cc1)c1nc2ccc(Cl)cc2s1`, the activity change was inactive: 0%.
With `C=CC[C@@H](CC(=O)N[C@@H](CO)Cc1ccccc1)C(=O)N[C@H](COC(=O)[C@@H](CC=C)CC(=O)OC(C)(C)C)Cc1c[nH]c2ccccc12` the activity change was inconclusive: -31.3%.
In the case of `COCCNC(=O)/C(C#N)=C/C=C/c1ccccc1`, the activity change is reported as active: -92.8%.
In the case of `CCOC(=O)CC1COCCN1C(=O)c1cc(COc2ccc(F)cc2Cl)on1` (configuration not stated), the activity change is reported as inconclusive: -42.4%.
For `Cc1c(NC(=O)c2coc(=O)c(Br)c2)c(=O)n(-c2ccccc2)n1C`, the activity change was active: -72.5%.
With `COc1cc2c(cc1OC)CN(C(=O)c1ccc(OC)c(S(=O)(=O)N3CCCC3)c1)CC2` the activity change was inactive: -7.83%.
With `O=C(CN1C(=O)CSc2cc(S(=O)(=O)N3CCCCCC3)ccc21)NCCc1ccccc1` the activity change was active: -62%.
With `Cc1cc(C)c(S(=O)(=O)N2CCN(c3ccccn3)CC2)c(C)c1` the activity change was inconclusive: -32.7%.
In the case of `O=C(c1ccc2ccccc2c1)N1CCc2ccccc21`, the activity change is reported as inactive: 21.2%.
For `CCOC(=O)c1ccccc1-c1csc(NS(=O)(=O)c2ccc(Cl)cc2)n1`, the activity change was inactive: 18.4%.
With `Cc1ccc(C)n1-c1ccc(C(=O)NCC2CCCO2)cc1` (configuration not stated) the activity change was inconclusive: -36.7%.
In the case of `OC(COC(c1ccccc1)c1ccccc1)CN1CCN(c2cccc(Cl)c2)CC1` (configuration not stated), the activity change is reported as inconclusive: -41.6%.
In the case of `CC(CC(=O)Nc1cc(C(F)(F)F)ccc1Cl)c1ccccc1` (configuration not stated), the activity change is reported as inconclusive: -36.6%.
For `CCN(CC)C1CCN(C(=O)c2cc(COc3ccc(F)cc3Cl)on2)C1` (configuration not stated), the activity change was inconclusive: -33.9%.
With `CC(C)(C)c1nnc2sc(SCC(=O)c3ccc4c(c3)OCCO4)nn2c1=O` the activity change was inconclusive: -37.4%.
For `CCN(C[C@H]1N[C@@](Cc2ccccc2)(C(=O)OC)[C@H]2C(=O)N(Cc3ccccc3)C(=O)[C@@H]12)C(=O)Nc1ccc(F)cc1`, the activity change was inconclusive: -34.5%.
